Experimental data published in article PMC6919601, “Identification of Plasmodium dipeptidyl aminopeptidase allosteric inhibitors by high throughput screening” (PLoS ONE, 2019).
Hit rate of the full screen: of about 110,000 compounds, about 230 (0.21%) showed an effect of 50% or more. Some of the results follow.

target: DPAP1 (Plasmodium falciparum, UniProt Q8IIJ9); experiment: primary screen, percent inhibition; read by cleavage of a fluorogenic dipeptide substrate; higher = more effect of the substance; design: species or system P. falciparum D10 trophozoite lysates; single well
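Also: 30 min substrate incubation versus DMSO and 10 µM JCP410 controls.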

DPAP1, sequence (Q8IIJ9 whole entry, looked up): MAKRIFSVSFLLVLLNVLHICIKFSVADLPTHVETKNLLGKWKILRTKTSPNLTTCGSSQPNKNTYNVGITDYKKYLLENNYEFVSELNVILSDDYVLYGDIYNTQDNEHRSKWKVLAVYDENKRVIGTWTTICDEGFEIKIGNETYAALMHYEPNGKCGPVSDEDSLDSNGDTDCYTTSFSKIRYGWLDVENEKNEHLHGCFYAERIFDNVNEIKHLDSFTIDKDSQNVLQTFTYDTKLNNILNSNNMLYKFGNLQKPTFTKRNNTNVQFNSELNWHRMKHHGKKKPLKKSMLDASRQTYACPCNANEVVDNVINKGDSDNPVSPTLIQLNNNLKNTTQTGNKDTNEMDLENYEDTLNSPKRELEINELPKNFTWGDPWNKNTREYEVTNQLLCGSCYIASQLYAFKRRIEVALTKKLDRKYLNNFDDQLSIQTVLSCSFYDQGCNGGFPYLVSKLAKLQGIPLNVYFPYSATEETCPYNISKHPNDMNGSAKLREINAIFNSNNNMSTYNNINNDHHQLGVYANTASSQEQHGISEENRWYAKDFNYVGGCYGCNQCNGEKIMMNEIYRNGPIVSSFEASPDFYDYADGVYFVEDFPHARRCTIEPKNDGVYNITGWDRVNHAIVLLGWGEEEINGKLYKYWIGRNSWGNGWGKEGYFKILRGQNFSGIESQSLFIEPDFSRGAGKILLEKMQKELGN

Structure (SMILES)	% Inhibition @ 10 uM
CSc1ccc(C2C(C#N)=C(N)OC3=C2C(=O)CC(C)C3)cc1 (stereo not shown)	-4.94%
Cc1ccc(C2c3c(oc4ccccc4c3=O)C(=O)N2c2nnc(C)s2)o1 (stereo not shown)	0.189%
O=C(O)c1cccc(N2C(=O)c3ccc(Oc4ccc([N+](=O)[O-])cc4)cc3C2=O)c1	9.31%
COc1cccc(C(=O)Nc2nc(-c3nnn(-c4cc(OC)cc(OC)c4)c3C)ns2)c1	1.11%
O=S(=O)(c1ccc(-c2cc(C(F)(F)F)no2)s1)N(Cc1ccco1)C1CCCC1	3.9%
Oc1ccc(Oc2nc(N3CCCCC3)nc(N3CCCCC3)n2)nn1	5.5%
Clc1ccc(-c2noc3ncnc(NCc4cccnc4)c23)cc1	-3.95%
COc1ccc(C(CC(=O)c2ccc(Br)cc2)Sc2ccccc2N)cc1 (stereo not shown)	-8.12%
O=c1c(-c2nc3ccccc3[nH]2)coc2cc(O)ccc12	8.45%
Cc1c(CNC(=O)c2cc3nc(-c4ccc(Cl)s4)cc(C(F)(F)F)n3n2)cnn1C	-2.45%
CN(C)c1ccc(CN(C(=O)c2ccco2)C2CCS(=O)(=O)C2)cc1 (stereo not shown)	-5.41%
O=C(O)[C@H](Cc1cc2ccccc2[nH]1)N1C(=O)c2ccccc2C1=O	-4.69%
CCOC(=O)C1CCN(Cc2ccc3ccccc3c2)CC1	-5.57%
CC(C)C[C@H](NC(=O)c1ccc2c(ccn2C)c1)C(=O)NCC#N	-4.17%
Cc1nnc(SCC(=O)N2CCN(Cc3ccccc3)CC2)c2nn(-c3ccccc3)c(C)c12	-9.92%
CCn1cc(C(=O)N(C)Cc2ccccc2)c2cc(OC)c(OC)cc2c1=O	-1.73%
CC(C)(C)c1ccc(S(=O)(=O)N2CCSC2)cc1	-3.49%
O=C(O)c1ccc(COc2ccccc2Cl)cc1	-5.31%
CC1CCCC(C)N1CC#CC(C)(C)O (stereo not shown)	-2.66%
COc1cc(OC)cc(-n2nnc(-c3nc(-c4ccc(Cl)cc4)no3)c2N)c1	3.73%
Oc1ccc(Br)cc1CN1CCCCCCC1	-1.64%
O=C(c1ccc([N+](=O)[O-])cc1Cl)N1CCc2ccccc2C1	-4.4%
COC(=O)c1ccc(C2C=C(c3ccc(OC)cc3)Nc3ncnn32)cc1 (stereo not shown)	0.0842%
C=CCn1cnc2c(cnn2-c2ccc(F)cc2)c1=O	-5.37%
OCc1nc(-c2ccccc2)cs1	-7.25%

Structure (SMILES)	% Inhibition @ 10 uM
Cc1nc2cc(-c3ccccc3)nn2c(C)c1CCC(=O)N1CCC2(CC1)OCCO2	1.26%
CCOC(=O)c1c(NC(=O)c2cccc([N+](=O)[O-])c2)sc(Br)c1-c1ccccc1	-3.98%
Cc1ccc(S(=O)(=O)NCC2CCC(C(=O)NCCCN3CCCC3=O)CC2)cc1 (stereo not shown)	-4.53%
C=C1N(c2ccccc2)C(=O)OC1(C)CC (stereo not shown)	-0.996%
Cc1cccc(NC(=O)CCCC(=O)O)c1	-1.38%
COc1ccc(NC(=O)C2CC(=O)N=C(Nc3nc4ccccc4s3)N2)cc1 (stereo not shown)	1.8%
NC(=O)c1cc(S(=O)(=O)NCCc2ccc(Cl)cc2)cs1	7.08%
Cc1cc(C)c2c(n1)sc1c3ccccc3c(N)nc12	-2.58%
O=C(O)C1CC(=O)N(Cc2ccc(Cl)cc2)/C(=N/c2ccccc2)S1 (stereo not shown)	1.49%
CCCN1CCN(C(=O)Cn2cnc3sc(C)c(S(=O)(=O)N4CCC(C)CC4)c3c2=O)CC1	-2.04%
CC1CCN(c2nc(-c3ccccc3F)nc3ccccc23)CC1	9.62%
O=C(Cn1ncc2ccsc2c1=O)NCCCc1ccccc1	-2.92%
COc1ccccc1Cn1c(SCc2ccc(Cl)cc2)nc2nccnc2c1=O	3.64%
Cc1ccc(-n2nc3c(=O)n(CCCC(=O)NCCCc4ccccc4)nc(C)c3c2C)cc1	0.227%
Cc1c2cnn(CC(=O)N3CCC(N4CCCCC4)CC3)c(=O)c2c(C)n1Cc1ccccc1F	-2.17%
COc1ccccc1/C=C/c1nn2c(C(F)(F)F)nnc2s1	-2.84%
COc1ccc(CN2CC(C(=O)NCCC3=CCCCC3)CC2=O)cc1 (stereo not shown)	-4.83%
Oc1nc2ccccc2s1	1.63%
O=C(CN1CCCCC1)NC1CCc2cc3c(cc21)CCC3 (stereo not shown)	-15.4%
CCn1c(C(=O)N2CCCC(C(=O)NC(C)c3ccc4c(c3)OCCO4)C2)cc2sccc21 (stereo not shown)	-4.34%
Fc1ccc(C2=CC(c3cc(Br)ccc3F)n3nnnc3N2)cc1 (stereo not shown)	3.32%
CC1=C(C(=O)OC2CCCC2)C(c2cccc(Cl)c2Cl)C2=C(O)CCCC2=N1 (stereo not shown)	6.25%
Oc1cccnc1CSc1nc2ccccc2[nH]1	4.54%
CCOc1ccc(/C=C2/N=C(c3cccc(Cl)c3Cl)OC2=O)cc1	-0.77%
COCCNCCn1cnc2c1c(=O)[nH]c(=O)n2C	3.35%

Structure (SMILES)	% Inhibition @ 10 uM
CC(C)C(=O)Nc1ccc(-c2cn3ccsc3n2)cc1	-2.16%
COc1ccc(NC(=O)COc2cc(C)c(Cl)c(C)c2)c(OC)c1	-4.13%
Cc1cc(C)c(C#N)c(SCC(=O)C2CC2)n1	0.0719%
Cc1cccc(NC(=O)c2cccc(F)c2)c1C	5.09%
CCN1CCN(c2cc(SC)nc(-c3ccc(OC)cc3)n2)CC1	-3.37%
CC1CCCCN1CCNC(=O)Cn1ncc2c(Cl)cccc21 (stereo not shown)	-2.88%
O=C(Nc1ccc2[nH]c(-c3cccs3)nc2c1)c1cccs1	4.31%
COc1ccc(C(=O)c2oc3ccccc3c2NC(=O)COc2ccccc2C)cc1	-1.25%
CC(=O)Nc1ccc(C2Nc3cc(C)c(C)cc3N=C3CC(C)(C)CC(O)=C32)cc1 (stereo not shown)	0.751%
CC(=O)N1CCc2c([nH]c3ccccc23)C1c1ccccc1C(F)(F)F (stereo not shown)	2.99%
Cc1ccc(CN2CCSCC2)c(C)c1	1.01%
COc1ccc(C2=NS(=O)(=O)N(C)C(C(=O)N3CCC(C(N)=O)CC3)=C2)cc1	-2.84%
COc1cccc(/C=N/N=C(\N)c2nonc2N)c1O	2.24%
Cc1cc(F)ccc1NCc1ccco1	-1.85%
O=C(CCc1nc(-c2ccccc2)no1)N1CCCCC1	-4.02%
OC1(c2ccc(Br)cc2)CCN(C2CCN(Cc3ccccc3)CC2)CC1	-5.44%
CCOC(=O)c1c(C)oc2c1c(C(c1ccc(F)cc1)N1CCOCC1)c(O)c1ccccc12 (stereo not shown)	-1.4%
COc1ccc(OCc2ccc(C3C(C#N)=C(N)Oc4[nH]nc(C)c43)o2)cc1 (stereo not shown)	-3.63%
Cc1ccccc1Oc1nc2c(C)cccn2c(=O)c1/C=C(\C#N)S(=O)(=O)c1ccc(Cl)cc1	2%
Cn1ccnc1Sc1nc2c(c(=O)n(C)c(=O)n2C)n1Cc1c(Cl)cccc1Cl	3.95%
Cc1nn(CC(=O)NC2CCCC(C)C2C)c(=O)c2cccn12 (stereo not shown)	-5.1%
CC1CCC(N(C)C2CCN(C)CC2)CC1 (stereo not shown)	-1.81%
CCOc1cc2c(cc1OCC)C1C(C(=O)NCc3ccc(C)o3)c3ccccc3C(=O)N1CC2 (stereo not shown)	4.05%
COC(=O)CC1C(=O)NCCN1CC#Cc1ccccc1 (stereo not shown)	-2.44%
COc1ccc(-c2nnc3n(Cc4ccccc4)c(=O)c4ccccc4n23)cc1	3.3%

Structure (SMILES)	% Inhibition @ 10 uM
CCCc1nn(-c2ccc(F)cc2)c(O)c1/C=N/C1CC1	-3.27%
COc1c(S(=O)(=O)n2c(C)nc3ccccc32)ccc(Cl)c1Cl	-3.49%
COc1ccccc1NC(=O)CN(c1ccc(C)cc1)S(=O)(=O)c1ccccc1	-10.2%
CC(C)c1ccc(NC(=O)[C@@H]2C[C@@H]2c2ccccc2)cc1	-1.93%
CCOC(=O)C1CCN(Cc2ccc(OC)c(C)c2)CC1	-0.294%
CSCCCN1CCCC(CO)C1 (stereo not shown)	0.265%
Cc1cccc(NC(=O)CN2C(=O)N/C(=C/c3ccc4c(c3)OCO4)C2=O)c1	-13.4%
CCN1C(=O)c2ccc(C(=O)Nc3cc(C)on3)cc2C1=O	3.86%
COc1ccc(CN2CCN(c3ccccc3F)CC2)cc1O	-5.57%
COc1ccc(-c2cc(-c3ccccc3)nc3sc(C(N)=O)c(N)c23)cc1	76%
CC(C)Cn1c(=O)c2ccccc2n2c(CCC(=O)NCCc3ccccc3)nnc12	-0.692%
CCCCc1n[nH]c(SCC(=O)Nc2nnc(CC)s2)n1	-1.4%
CCOC(=O)C1=C(C)N=c2s/c(=C\c3ccc(C)o3)c(=O)n2C1c1ccccc1Cl (stereo not shown)	-1.66%
CCOc1ccc(C2CC(c3ccc(OC(F)F)cc3)n3ncnc3N2)cc1Cl (stereo not shown)	-7.08%
COc1ccc(/C=C(/C#N)C(=O)Nc2cccc(C(F)(F)F)c2)cc1	-5.38%
COc1ccc(C(=O)N[C@@H](Cc2cc(Cl)c(O)c(Cl)c2)C(=O)NCC#N)cc1	-8.26%
O=C(O)CSC1CCCCC1O (stereo not shown)	0.968%
CC1(C)C=Cc2c(nc3ccccc3c2NCc2ccccc2)C1	3.16%
COc1ccc(C(F)(F)F)cc1NC(=O)c1sc2nc(-c3ccncc3)ccc2c1N	3.5%
CC1CN(C(=O)c2ccc(CNS(=O)(=O)c3cccc(C(F)(F)F)c3)cc2)CC(C)O1 (stereo not shown)	3.56%
Cc1ccc(-c2noc(CNc3cccc(C)c3)n2)cc1	-3.41%
COc1ccc(C(=O)NC2(C(F)(F)F)C(=O)Nc3c2c(=O)[nH]c(=O)n3-c2ccc(C)cc2)cc1 (stereo not shown)	1.93%
COc1cc(C(=O)NC2(C(F)(F)F)NC(=O)N(C)C2=O)cc(OC)c1OC (stereo not shown)	1.91%
COc1ccc(/C=C2\Cc3ccccc3C2=O)c(OC)c1OC	-0.503%
CN1C(=O)C(=N)c2c3ccccc3c(O)c3cccc1c23	-9.52%
